Source: patent publication US11780935B2, “Mutant antibodies and conjugation thereof” (Pfizer Healthcare Ireland, priority 2012, dated 2023)

Test: Reactivity of VH-K^99 of h38C2-IgG1 with CATC-1, reversed phase chromatography
Type: biochemical
Settings: h38C2-IgG1 after conjugation with Biotin-PFP; reacted with CATC-1
Description: The antibody h38C2-IgG1 was adjusted to 20 mg/mL with HEPES buffer pH 7.5 to a final concentration of 0.02 M. Biotin-PFP was reconstituted in water to 10 mg/mL and added to h38C2-IgG1 at a molar ratio of 5:1 and allowed to react at room temperature for 2 hrs. The unreacted PFP-Biotin was removed by size exclusion chromatography and buffer exchanged into a histidine, glycine, and sucrose buffer pH 6.5. […] Conjugation of h38C2-IgG1 occurs at a distribution between 0-3 CA with an average of 1.1 conjugations. Increased conjugation would be possible following optimization of the reaction conditions. The reactivity of VH-K^99 (K^93 according to Kabat numbering) on h38C2-IgG1 was confirmed to be >95% when reacted with the catalytic antibody test compound CATC-1, and analyzed via reversed phase chromatography.

B1: h38C2-IgG1: humanized aldolase catalytic antibody (SEQ ID NO:64 and 65); in b522 conjugated with Biotin-PFP (protein)
light: ELQMTQSPSSLSASVGDRVTITCRSSQSLLHTYGSPYLNWYLQKPGQSPKLLIYKVSNRFSGVPSRFSGSGSGTDFTLTISSLQPEDFAVYFCSQGTHLPYTFGGGTKVEIKRTVAAPSVFIFPPSDEQLKSGTASVVCLLNNFYPREAKVQWKVDNALQSGNSQESVTEQDSKDSTYSLSSTLTLSKADYEKHKVYACEVTHQGLSSPVTKSFNRGEC
heavy: EVQLVESGGGLVQPGGSLRLSCAASGFTFSNYWMSWVRQSPEKGLEWVSEIRLRSDNYATHYAESVKGRFTISRDNSKNTLYLQMNSLRAEDTGIYYCKTYFYSFSYWGQGTLVTVSSASTKGPSVFPLAPSSKSTSGGTAALGCLVKDYFPEPVTVSWNSGALTSGVHTFPAVLQSSGLYSLSSVVTVPSSSLGTQTYICNVNHKPSNTKVDKRV[human IgG1 Fc cut from this listing]
modifications: biotin-PFP conjugate; Synthetic mAb
reactivity of VH-K^99 (K^93 according to Kabat numbering): > 95%
